# Assay results as given in PMC4336329 (PLoS ONE, 2015).
# About 14,000 (4.5%) of roughly 310,000 compounds showed an effect of 50% or more. Effects have a minus sign here. This is one part of the list.
# Target: human ether-à-go-go-related gene (hERG) potassium channel (human, UniProt Q12809)
# Assay: primary screen, population patch clamp on CHO cells stably expressing hERG
# 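Also: peak tail current of the secondary pulse compared with the same well before compound.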
# Chain of human ether-à-go-go-related gene (hERG) potassium channel (Q12809 whole entry, looked up): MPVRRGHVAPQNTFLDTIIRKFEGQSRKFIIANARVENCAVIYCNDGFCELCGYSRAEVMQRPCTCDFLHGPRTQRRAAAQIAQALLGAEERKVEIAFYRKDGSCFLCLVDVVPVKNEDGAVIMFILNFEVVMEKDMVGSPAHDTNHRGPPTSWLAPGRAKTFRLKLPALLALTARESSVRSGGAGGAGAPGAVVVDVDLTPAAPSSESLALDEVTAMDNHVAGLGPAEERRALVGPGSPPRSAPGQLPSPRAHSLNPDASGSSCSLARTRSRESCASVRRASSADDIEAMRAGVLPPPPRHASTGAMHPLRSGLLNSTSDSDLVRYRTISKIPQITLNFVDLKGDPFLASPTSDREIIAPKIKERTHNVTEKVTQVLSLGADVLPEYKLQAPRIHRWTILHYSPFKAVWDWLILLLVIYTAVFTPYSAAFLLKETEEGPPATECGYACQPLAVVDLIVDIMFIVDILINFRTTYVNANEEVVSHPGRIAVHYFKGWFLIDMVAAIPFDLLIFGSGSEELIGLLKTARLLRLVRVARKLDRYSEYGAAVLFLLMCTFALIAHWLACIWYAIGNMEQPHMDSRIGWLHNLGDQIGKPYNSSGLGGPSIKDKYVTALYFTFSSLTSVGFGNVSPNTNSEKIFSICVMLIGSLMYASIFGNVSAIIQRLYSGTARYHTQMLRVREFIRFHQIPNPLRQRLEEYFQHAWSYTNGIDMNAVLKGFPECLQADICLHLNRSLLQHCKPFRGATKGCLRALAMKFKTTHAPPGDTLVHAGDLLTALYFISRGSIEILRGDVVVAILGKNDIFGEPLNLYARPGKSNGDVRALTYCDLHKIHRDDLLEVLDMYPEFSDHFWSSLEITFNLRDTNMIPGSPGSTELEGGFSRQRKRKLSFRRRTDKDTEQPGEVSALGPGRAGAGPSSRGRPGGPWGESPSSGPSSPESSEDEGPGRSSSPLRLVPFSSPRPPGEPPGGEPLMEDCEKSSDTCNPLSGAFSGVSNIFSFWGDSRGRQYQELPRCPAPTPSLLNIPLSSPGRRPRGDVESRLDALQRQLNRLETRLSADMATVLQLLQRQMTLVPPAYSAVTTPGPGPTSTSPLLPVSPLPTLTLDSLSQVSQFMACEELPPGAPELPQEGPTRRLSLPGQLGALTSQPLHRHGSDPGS
row,SMILES,"hERG current change (%, negative = inhibition) at 10uM"
1,COc1cccc(C(=O)NCCS(=O)(=O)N2CC(C)CC(C)C2)c1 (stereo not drawn),-13%
2,O=C(Nc1ccc([N+](=O)[O-])cc1)c1cc(Cl)sc1Cl,-1.52%
3,COc1c(C)cccc1C(=O)Nc1ccc(OCC(=O)N2CCOCC2)cc1C,27.2%
4,COc1ccc(C)cc1NC1=NC(C)(C)CS1,7.23%
5,CC(C)(C)NS(=O)(=O)c1ccc(CCC(=O)Nc2cc(Cl)ccc2Oc2ccccc2)cc1,-3.35%
6,CN(CCCC(=O)Nc1ccccc1F)S(=O)(=O)c1ccc(F)cc1,-6.05%
7,O=C(Nn1c(C2CC2)nc2ccccc2c1=O)c1ccco1,-8.14%
8,O=C(CCNC(=O)c1ccc([N+](=O)[O-])cc1)Nc1cccc(S(=O)(=O)N2CCOCC2)c1,-31.7%
9,CNC(=O)CN1C(=O)NC(c2ccccc2)(c2ccccc2)C1=O,-2.48%
10,COc1ccc(CCNC(=O)CN(c2cccc([N+](=O)[O-])c2)S(C)(=O)=O)cc1,9.26%
11,O=C(COc1ccc2ccccc2c1Br)NC(=S)Nc1cccc(CO)c1,-2.61%
12,CCOC(=O)c1c(NC(=S)Nc2ccccc2)sc2c1CC(C)(C)SC2,-3.74%
13,CSc1cc(-c2ccc(Cl)cc2)[nH]c(=O)c1C#N,1.3%
14,CC[N+](C)(CC)CCOC(=O)C(O)(c1ccccc1)C1CCCCC1.[Br-] (stereo not drawn),-2.35%
15,COCCn1cc(C(=S)N2CCOCC2)c2ccccc21,-5.24%
16,Cc1ccc(C)c(NS(=O)(=O)c2ccc(OCC(=O)NCC3CCCO3)cc2)c1 (stereo not drawn),0.933%
17,CC(=O)Nc1c(I)c(NC(C)=O)c(I)c(C(=O)[O-])c1I.O.[Na+],-6.22%
18,COC(=O)c1[nH]c(C)c(/C(O)=C2\C(=O)C(=O)N(CCN(C)C)C2c2ccc(C)o2)c1C (stereo not drawn),1.89%
19,Cl.c1ccc2c(CC3=NCCN3)cccc2c1,-9.31%
20,O=C(O)/C=C/c1ccc(-n2ccnc2)cc1,16.8%
21,COc1ccc(S(=O)(=O)N2CCC[C@H]2C(=O)NC2=NCCS2)cc1,-1.09%
22,CCOCCCn1c(=NC(C)=O)c(C#N)cc2c(=O)n3ccccc3nc21,-15.4%
23,Cc1ccccc1NC(=O)C(C)OC(=O)C1CC(=O)N(Cc2ccco2)C1 (stereo not drawn),9.65%
24,Cc1ccc(-c2noc(CCCC(=O)NCC3CCCO3)n2)cc1 (stereo not drawn),20.3%
